In the supplement of paper PMC11417369:
± gives the standard deviation of the averaged measurements. The list shows a part of the results.

tested on: PfAP2-EXP AP2 domain (GST-tagged); experiment: gcPBM binding intensity (ln(normalized median fluorescence intensity)); higher = stronger DNA binding
Summary of the method: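 Binding intensity values are the highest Masliner-normalised natural-log median intensity among replicate spots of either probe orientation. The binding step lasted 1 h in 1× PBS with 1% milk, 0.2 mg/ml BSA, 0.5% salmon testes DNA and 0.03% Triton X-100, using GST-tagged P. falciparum DNA-binding domains expressed in E. coli on an Agilent 4 × 180k array of primer-extended double-stranded 36-bp intergenic genomic probes plus negative controls. Alexa488 anti-GST antibody and a 488 nm scan detected bound protein.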

| Sequence | gcPBM binding intensity (ln) |
| --- | --- |
| ATTATTTTTCTATGTGTGCACGTGTGGAATGTGTCT [GTGCAC_site9507] | 8.98 ± 0.17 |
| CATTATGTCATAAATGCACACATATACATTGTTTTG [CACACA_site8118] | 8.99 ± 0.071 |
| AATAAATTATTTATTGCATGTAATATGAATATTTTT [TGCATGCA_site798] | 8.75 ± 0.11 |
| ATATATTTTATTCCTATATATATATATATATATATA [GTGCAC_negctrl_site556] | 10.2 ± 0.49 |
| TAATGTATGAAATAAACACACAAGTAAGTACATAAA [CACACA_site2451] | 8.87 ± 0.31 |
| TCTGTAGTTTTTTACAGTACTTTTAGGTAATACATA [XGTACX_site7417] | 8.38 ± 0.33 |
| AAAACACCCAAACACACACACACATATATATATATA [CACACA_site9119] | 10.1 ± 0.3 |
| TTCTTGTATTTTCATAGTACATATAATGTCGTGTTA [XGTACX_site7714] | 8.72 ± 0.3 |
| TACATAGAGTTTGTTTGTACTCATATGCGTAAATTC [XGTACX_site4810] | 8.49 ± 0.23 |
| ACCTCTTTGAAATATACACACTAAACATATCAACTT [CACACA_site5372] | 8.87 ± 0.52 |
| AGAAAAAAAATATACACACATACGATCATACATATG [CACACA_site2171] | 8.61 ± 0.64 |
| ATTTTTTCTGTCTTAATTGGACCCACTGCAAATGGG [CACACA_negctrl_site1158] | 8.54 ± 0.47 |
| ATAATACAAAAAAAAAAAAAAAATAAAATAATAAAA [GTGCAC_negctrl_site722] | 8.13 ± 0.51 |
| TTATAGCCTGTGAAGAGTACATTTTTATTTTTTATT [XGTACX_site4105] | 8.51 ± 0.44 |
| TACCTAAATAAATGGACACACACATATATATATATA [CACACA_site8407] | 10.1 ± 0.3 |
| AAGTAATACAACACGCACATATATATATATATATAT [GTGCAC_negctrl_site89] | 10.3 ± 0.3 |
| TATTTTTAAATATAAAGTACTTATATTAACTACGAA [XGTACX_site1524] | 8.27 ± 0.29 |
| TTTACGCTATAGGAGAGTACTTATAAAATCCTGTGT [XGTACX_site2364] | 8.51 ± 0.36 |
| TTCATATATTTTAAAGCATGCATTCATCTTATAGTT [TGCATGCA_site800] | 9.17 ± 0.28 |
| AGACGAAAATAATAAAGTACTAAAAAAAAAAAAAAA [XGTACX_site927] | 8.14 ± 0.51 |
| TATTTTTCCATTGGGGGTACATGTGTTATATTTATT [XGTACX_site5914] | 10.4 ± 0.76 |
| TACAAAATATATATGACACACACAAAAAAAGTATAT [CACACA_site8455] | 8.79 ± 0.49 |

| Sequence | gcPBM binding intensity (ln) |
| --- | --- |
| ATATATATGCATATATGTACTTAAAATATAAAGGCA [XGTACX_site3256] | 8.64 ± 0.29 |
| GTATACCAACATATTATACACACCTTTATATTTTTT [CACACA_site2153] | 8.62 ± 0.39 |
| TTGTATACATAAAATGGTACAGAATATATAATTCTA [XGTACX_site7236] | 8.46 ± 0.28 |
| ATAAGATGATGGAACTGTAATATATATATATATATA [CACACA_negctrl_site839] | 10 ± 0.5 |
| TTTAAGAGTTGCACACGTACAAAAAAAAAAAAAAAA [XGTACX_site7406] | 8.57 ± 0.15 |
| ATTACATGTTACTTAACACACATCTGGTGAAATAAT [CACACA_site171] | 8.63 ± 0.42 |
| TTAATTAAAATTTATACATGCATAAAAGAAATACAC [TGCATGCA_site537] | 9.36 ± 0.35 |
| GTAATGAAACATTGCACACATATAATAATATAATAT [CACACA_site1422] | 8.63 ± 0.38 |
| ATTTTTTTCTTTTCTTTTTTCTTTTTTTTTTTTGGT [CACACA_negctrl_site1146] | 8.35 ± 0.61 |
| TTATACTGTTTCAGAAAAATAAAGAATGAAAGTATT [XGTACX_negctrl_site230] | 8.73 ± 0.31 |
| TTTTTATATTCCCCCAGTACATATATAATAGTAGTA [XGTACX_site7927] | 10 ± 0.3 |
| AATAAAAAAATAAAATGTACATACAAATAAATAAAT [XGTACX_site5153] | 8.89 ± 0.3 |
| TGCAACAAAATAAACACACACACACCCCCACAAAAA [CACACA_site3388] | 9.78 ± 0.54 |
| TATTTTAATGAAGCATTTAAGGGAAAAAAAAAAAAA [TGCATGCA_negctrl_site606] | 8.4 ± 0.59 |
| TTCATTTTAATTTCCAGTACACATATATATACATAT [XGTACX_site558] | 8.79 ± 0.38 |
| ATGTCATAAATGTACGCACACATACATAAACATATA [CACACA_site4530] | 8.715 ± 0.064 |
| ATTTATTTCTATAATACACACAAATATCTTAATTAA [CACACA_site7801] | 8.19 ± 0.35 |
| AATATAATACAATATTGTACATAATATAAATTAAAA [XGTACX_site4064] | 8.46 ± 0.37 |
| ATTATATTTATGTTGGTGCATTATACATGAAATTTA | 9.36 ± 0.57 |
| TATATGTTATATTGGACACACACAATAAACATTATG [CACACA_site8480] | 8.57 ± 0.49 |
| AAACATAAAGAAAAAAAAAATATATATTTATTTATT [GTGCAC_negctrl_site357] | 8.32 ± 0.33 |
| TTATTTAAATATTGATGTACTCTCCTTATTATAATA [XGTACX_site1240] | 8.74 ± 0.4 |

| Sequence | gcPBM binding intensity (ln) |
| --- | --- |
| ATAAAAATGGTGTTAACACACACATATATATATATA [CACACA_site8089] | 10.1 ± 0.38 |
| ATATATTAACAAAAGGTGCTTTTGGCAAAGTATAAT | 8.83 ± 0.31 |
| GGTAATTATTTTGGTTGTACTCAAATATATAATATT [XGTACX_site291] | 8.69 ± 0.35 |
| GAGAAAGATATATACACACACATAAATATGTACATA [CACACA_site6975] | 8.57 ± 0.38 |
| TTTACAATATTAAAATGTACATATAAAATAAATAAA [XGTACX_site8367] | 8.71 ± 0.4 |
| TATATAGGTAAAAAATGTACTTATATTGAATATATT [XGTACX_site4414] | 8.34 ± 0.36 |
| TTTCCCAAGCTTATTACACACAAGTAGAATAAGCTT [CACACA_site1561] | 8.28 ± 0.4 |
| AATTTGTTAATATTTTGTACACATAATATAAAAACA [XGTACX_site2224] | 8.38 ± 0.32 |
| GATATCAAATATAAATGTACAAATTATATATACATA [XGTACX_site3228] | 8.27 ± 0.28 |
| TTCTTATTTATTTTCTTCTCCTTCCTCAAATTTTTT [GTGCAC_negctrl_site592] | 8.84 ± 0.4 |
| TATATAAATGTTATCACACACTCACGTTTGACAAAA [CACACA_site6468] | 8.38 ± 0.26 |
| TTTACAATATAAAATACACACACACTAACATATATT [CACACA_site9231] | 8.65 ± 0.54 |
| TCCTTTTTTAAAAGTTGTACATTATTGTTATTTGTT [XGTACX_site4686] | 8.65 ± 0.3 |
| ATACAATAAAATAAGTTTGAATAAAATTAAATATAT [CACACA_negctrl_site877] | 8.38 ± 0.4 |
| GAAGGAAATAATAGTAGTACAAATGGTAAGAAATAT [XGTACX_site5845] | 9.23 ± 0.49 |
| TTCCTCTTAATATGTGCACACTAAATTATAACCTAA [CACACA_site5751] | 8.93 ± 0.014 |
| TACAAAAAAAAAAAATAGATAAAATAATAATCAAAT [TGCATGCA_negctrl_site524] | 8.42 ± 0.45 |
| ATATATTGAACATATTGTACATTTTGTTAATATTTT [XGTACX_site7622] | 8.26 ± 0.52 |
| TCTCAAGTTGTTAAAAAATAAAAACAATAAATCTAA [CACACA_negctrl_site165] | 8.22 ± 0.5 |
| AACAATTGGAATAACGCATGCATTTATAATATAGAA [TGCATGCA_site298] | 9.66 ± 0.19 |
| CAATTTTTTAAATGCACACAAAAGGAATAAATAAAT [CACACA_site544] | 8.83 ± 0.27 |
| AAGAAGAAATGCTTTGCATGCAAATTTTATGCCAAC [TGCATGCA_site721] | 10.1 ± 0.17 |

| Sequence | gcPBM binding intensity (ln) |
| --- | --- |
| ACAAATTTATACTTAAAACACACGTAATCATTTATA [CACACA_site1636] | 8.34 ± 0.45 |
| TGAATATTCCTATGCACACAAATTAAAATACATAAT [CACACA_site4403] | 8.64 ± 0.35 |
| TAAAATAATTTATGCATACACACATATATATATATA [CACACA_site4021] | 10.1 ± 0.47 |
| TACAATTTTTTAAATGCACACAAAAGGAATAAATAA [CACACA_site8075] | 8.78 ± 0.16 |
| AAAAGCAAGTTCCAGGGTACATATATATGAAAAAAC [XGTACX_site2408] | 9.03 ± 0.47 |
| TAATATATGTATTGCACACCTATAACCATTATTTCT [CACACA_site1498] | 8.86 ± 0.11 |
| AAATATATTTTACATTGTACATGAATAAACTATAAA [XGTACX_site2080] | 8.65 ± 0.59 |
| AAAAATTAAATAAATTTACACACTAATAATTACATA [CACACA_site8260] | 8.2 ± 0.38 |
| AAAAATATGTCCATGAAAAGGATAGGCAGGTAATCA [XGTACX_negctrl_site93] | 8.75 ± 0.62 |
| ACGTTAAAATATTGGGTGCTAACACAATAAAAATAA | 8.76 ± 0.2 |
| AAATATATAAAATATACACACAGTAATATATATATA [CACACA_site1385] | 9.52 ± 0.35 |
| TCTTGTTTTCAAATATGTACATAGAATAGACATTTT [XGTACX_site684] | 8.61 ± 0.38 |
| ATAAAATGAACAAACACACACACATATATATATATA [CACACA_site2402] | 10.1 ± 0.44 |
| TATATATAAATATTCAGTACATAGTATTATTAAGTA [XGTACX_site1980] | 8.25 ± 0.24 |
| AAGTTTTATTTAAATTGTACTAAAATTTTTATATTA [XGTACX_site7065] | 8.28 ± 0.35 |
| CCTAAAAAAAAGAAATGATATACATATGTATATATA [GTGCAC_negctrl_site100] | 8.54 ± 0.4 |
| TATTTAAGAATATGAAGTACATATATTATTTAAAAA [XGTACX_site7897] | 8.15 ± 0.29 |
| CATATAAATAAATACACACACACACGCCTTATAATT [CACACA_site7830] | 8.7 ± 0.64 |
| TATATAGGTATCATTACACACATGTATACTTATTTG [CACACA_site7864] | 8.56 ± 0.28 |
| TTTTTCTTTCTCTATTGTACACATGGAAACACATAA [XGTACX_site4601] | 8.93 ± 0.38 |
| TTTTTTTTTTTTAATTGTACATTTTATATAAACTTT [XGTACX_site6806] | 8.57 ± 0.66 |
| TGTTGATTTCTCAAATGTACTTTACTTTTCTTCAGA [XGTACX_site7916] | 8.46 ± 0.33 |
